Laboratory results: the supplement of paper PMC8728848
This is one part of the list.

What was measured:
Assay in all cases: glycan array binding signal (z-score within array); higher = stronger binding
Details in all cases: glycan notation: IUPAC condensed, linker removed
[1] = target: GlcNAc(b1-2)[GlcNAc(b1-4)]Man(a1-3)[GlcNAc(b1-4)][GlcNAc(b1-2)Man(a1-6)]Man(b1-4)GlcNAc(b1-4)GlcNAc
In short: (§1)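 The binding signal is a Z-score computed within each array. Data were drawn from 3228 arrays in the Consortium for Functional Glycomics database, restricted to those with a known protein sequence. Scores were averaged over arrays of the same protein sequence at different concentrations or buffers, and over linkers, and negative values can be taken as non-binding.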

[2] = target: GlcNAc(b1-2)[GlcNAc(b1-4)]Man(a1-3)[GlcNAc(b1-4)][GlcNAc(b1-2)[GlcNAc(b1-6)]Man(a1-6)]Man(b1-4)GlcNAc(b1-4)GlcNAc
In short: as §1

[3] = target: GlcNAc(b1-2)[GlcNAc(b1-4)]Man(a1-3)[GlcNAc(b1-4)][GlcNAc(b1-2)[GlcNAc(b1-6)]Man(a1-6)]Man(b1-4)GlcNAc(b1-4)[Fuc(a1-6)]GlcNAc
In short: as §1

[4] = target: GlcNAc(b1-2)[GlcNAc(b1-6)]Man(a1-6)[GlcNAc(b1-2)Man(a1-3)]Man(b1-4)GlcNAc(b1-4)GlcNAc
In short: as §1

[5] = target: GlcNAc(b1-2)[GlcNAc(b1-6)]Man(a1-6)[GlcNAc(b1-2)Man(a1-3)]Man(b1-4)GlcNAc(b1-4)[Fuc(a1-6)]GlcNAc
In short: as §1

[6] = target: GlcNAc(b1-2)[GlcNAc(b1-6)]Man(a1-6)[GlcNAc(b1-4)][GlcNAc(b1-2)Man(a1-3)]Man(b1-4)GlcNAc(b1-4)GlcNAc
In short: as §1

[7] = target: GlcNAc(b1-3)Fuc
In short: as §1

[8] = target: GlcNAc(b1-3)Gal
In short: as §1

[9] = target: GlcNAc(b1-3)Gal(b1-3)GalNAc
In short: as §1

[10] = target: GlcNAc(b1-3)Gal(b1-4)Glc
In short: as §1

[11] = target: GlcNAc(b1-3)Gal(b1-4)GlcNAc
In short: as §1

[12] = target: GlcNAc(b1-3)Gal(b1-4)GlcNAc(b1-2)Man(a1-3)[GlcNAc(b1-3)Gal(b1-4)GlcNAc(b1-2)Man(a1-6)]Man(b1-4)GlcNAc(b1-4)GlcNAc
In short: as §1

[13] = target: GlcNAc(b1-3)Gal(b1-4)GlcNAc(b1-2)Man(a1-3)[GlcNAc(b1-3)Gal(b1-4)GlcNAc(b1-2)Man(a1-6)]Man(b1-4)GlcNAc(b1-4)[Fuc(a1-6)]GlcNAc
In short: as §1

[14] = target: GlcNAc(b1-3)Gal(b1-4)GlcNAc(b1-2)[GlcNAc(b1-3)Gal(b1-4)GlcNAc(b1-6)]Man(a1-6)[GlcNAc(b1-3)Gal(b1-4)GlcNAc(b1-2)Man(a1-3)]Man(b1-4)GlcNAc(b1-4)GlcNAc
In short: as §1

[15] = target: GlcNAc(b1-3)Gal(b1-4)GlcNAc(b1-3)Gal(b1-4)GlcNAc
In short: as §1

[16] = target: GlcNAc(b1-3)Gal(b1-4)GlcNAc(b1-3)Gal(b1-4)GlcNAc(b1-2)Man(a1-3)[GlcNAc(b1-3)Gal(b1-4)GlcNAc(b1-3)Gal(b1-4)GlcNAc(b1-2)Man(a1-6)]Man(b1-4)GlcNAc(b1-4)GlcNAc
In short: as §1

[17] = target: GlcNAc(b1-3)Gal(b1-4)GlcNAc(b1-3)Gal(b1-4)GlcNAc(b1-2)Man(a1-3)[GlcNAc(b1-3)Gal(b1-4)GlcNAc(b1-3)Gal(b1-4)GlcNAc(b1-2)Man(a1-6)]Man(b1-4)GlcNAc(b1-4)[Fuc(a1-6)]GlcNAc
In short: as §1

[18] = target: GlcNAc(b1-3)Gal(b1-4)GlcNAc(b1-3)Gal(b1-4)GlcNAc(b1-2)[GlcNAc(b1-3)Gal(b1-4)GlcNAc(b1-3)Gal(b1-4)GlcNAc(b1-6)]Man(a1-6)[GlcNAc(b1-3)Gal(b1-4)GlcNAc(b1-3)Gal(b1-4)GlcNAc(b1-2)Man(a1-3)]Man(b1-4)GlcNAc(b1-4)[Fuc(a1-6)]GlcNAc
In short: as §1

[19] = target: GlcNAc(b1-3)Gal(b1-4)GlcNAc(b1-3)Gal(b1-4)GlcNAc(b1-3)Gal(b1-4)GlcNAc(b1-2)Man(a1-3)[GlcNAc(b1-3)Gal(b1-4)GlcNAc(b1-3)Gal(b1-4)GlcNAc(b1-3)Gal(b1-4)GlcNAc(b1-2)Man(a1-6)]Man(b1-4)GlcNAc(b1-4)GlcNAc
In short: as §1

[20] = target: GlcNAc(b1-3)Gal(b1-4)GlcNAc(b1-3)Gal(b1-4)GlcNAc(b1-3)Gal(b1-4)GlcNAc(b1-2)Man(a1-3)[GlcNAc(b1-3)Gal(b1-4)GlcNAc(b1-3)Gal(b1-4)GlcNAc(b1-3)Gal(b1-4)GlcNAc(b1-2)Man(a1-6)]Man(b1-4)GlcNAc(b1-4)[Fuc(a1-6)]GlcNAc
In short: as §1

[21] = target: GlcNAc(b1-3)Gal(b1-4)GlcNAc(b1-3)Gal(b1-4)GlcNAc(b1-3)Gal(b1-4)GlcNAc(b1-2)[GlcNAc(b1-3)Gal(b1-4)GlcNAc(b1-3)Gal(b1-4)GlcNAc(b1-3)Gal(b1-4)GlcNAc(b1-6)]Man(a1-6)[GlcNAc(b1-3)Gal(b1-4)GlcNAc(b1-3)Gal(b1-4)GlcNAc(b1-3)Gal(b1-4)GlcNAc(b1-2)Man(a1-3)]Man(b1-4)GlcNAc(b1-4)[Fuc(a1-6)]GlcNAc
In short: as §1

[22] = target: GlcNAc(b1-3)Gal(b1-4)GlcNAc(b1-3)Gal(b1-4)GlcNAc(b1-3)Gal(b1-4)GlcNAc(b1-3)Gal(b1-4)GlcNAc(b1-2)Man(a1-3)[GlcNAc(b1-3)Gal(b1-4)GlcNAc(b1-3)Gal(b1-4)GlcNAc(b1-3)Gal(b1-4)GlcNAc(b1-3)Gal(b1-4)GlcNAc(b1-2)Man(a1-6)]Man(b1-4)GlcNAc(b1-4)GlcNAc
In short: as §1

[23] = target: GlcNAc(b1-3)Gal(b1-4)GlcNAc(b1-3)Gal(b1-4)GlcNAc(b1-3)Gal(b1-4)GlcNAc(b1-3)Gal(b1-4)GlcNAc(b1-2)Man(a1-3)[GlcNAc(b1-3)Gal(b1-4)GlcNAc(b1-3)Gal(b1-4)GlcNAc(b1-3)Gal(b1-4)GlcNAc(b1-3)Gal(b1-4)GlcNAc(b1-2)Man(a1-6)]Man(b1-4)GlcNAc(b1-4)[Fuc(a1-6)]GlcNAc
In short: as §1

[24] = target: GlcNAc(b1-3)Gal(b1-4)GlcNAc(b1-3)Gal(b1-4)GlcNAc(b1-3)Gal(b1-4)GlcNAc(b1-3)Gal(b1-4)GlcNAc(b1-2)[GlcNAc(b1-3)Gal(b1-4)GlcNAc(b1-3)Gal(b1-4)GlcNAc(b1-3)Gal(b1-4)GlcNAc(b1-3)Gal(b1-4)GlcNAc(b1-6)]Man(a1-6)[GlcNAc(b1-3)Gal(b1-4)GlcNAc(b1-3)Gal(b1-4)GlcNAc(b1-3)Gal(b1-4)GlcNAc(b1-3)Gal(b1-4)GlcNAc(b1-2)Man(a1-3)]Man(b1-4)GlcNAc(b1-4)[Fuc(a1-6)]GlcNAc
In short: as §1

[25] = target: GlcNAc(b1-3)Gal(b1-4)GlcNAc(b1-3)Gal(b1-4)GlcNAc(b1-3)GalNAc
In short: as §1

[26] = target: GlcNAc(b1-3)Gal(b1-4)GlcNAc(b1-3)GalNAc
In short: as §1

[27] = target: GlcNAc(b1-3)Gal(b1-4)GlcNAc(b1-3)[GlcNAc(b1-3)Gal(b1-4)GlcNAc(b1-3)]GalNAc
In short: as §1

[28] = target: GlcNAc(b1-3)Gal(b1-4)GlcNAc(b1-6)[Gal(b1-3)]GalNAc
In short: as §1

[29] = target: GlcNAc(b1-3)Gal(b1-4)GlcNAc(b1-6)[GlcNAc(b1-3)Gal(b1-3)]GalNAc
In short: as §1

[30] = target: GlcNAc(b1-3)Gal(b1-4)GlcNAc(b1-6)[GlcNAc(b1-3)]Gal(b1-4)GlcNAc
In short: as §1

[31] = target: GlcNAc(b1-3)GalNAc
In short: as §1

[32] = target: GlcNAc(b1-3)Man
In short: as §1

[33] = target: GlcNAc(b1-3)[GlcNAc(b1-4)][GlcNAc(b1-6)]GlcNAc
In short: as §1

[34] = target: GlcNAc(b1-3)[GlcNAc(b1-6)]Gal(b1-4)GlcNAc
In short: as §1

[35] = target: GlcNAc(b1-3)[GlcNAc(b1-6)]GalNAc
In short: as §1

[36] = target: GlcNAc(b1-4)Gal(b1-4)GlcNAc
In short: as §1

[37] = target: GlcNAc(b1-4)GlcNAc
In short: as §1

[38] = target: GlcNAc(b1-4)GlcNAc(b1-4)GlcNAc
In short: as §1

B1: DC-ASGPR-short (Homo sapiens) (protein)
chain: MTRTYENFQYLENKVKVQGFKNGPLPLQSLLQRLRSGPCHLLLSLGLGLLLLVIICVVGFQNSKFQRDLVTLRTDFSNFTSNTVAEIQALTSQGSSLEETIASLKAEVEGFKQERQAVHSEMLLRVQQLVQDLKKLTCQVATLNNNASTEGTCCPVNWVEHQDSCYWFSHSGMSWAEAEKYCQLKNAHLVVINSREEQNFVQKYLGSAYTWMGLSDPEGAWKWVDGTDYATGFQNWKPGQPDDWQGHGLGGGEDCAHFHPDGRWNDDVCQRPYHWVCEAGLGQTSQESH
B1 was tested, and the “glycan array binding signal (z-score)” value [1] was -0.268, the “glycan array binding signal (z-score)” value [2] was -0.276 and the “glycan array binding signal (z-score)” value [3] was -0.268. For the same binder, the “glycan array binding signal (z-score)” value [4] was -0.275, the “glycan array binding signal (z-score)” value [5] was -0.282 and the “glycan array binding signal (z-score)” value [6] was -0.276. For the same binder, the “glycan array binding signal (z-score)” value [7] was -0.264, the “glycan array binding signal (z-score)” value [8] was -0.307 and the “glycan array binding signal (z-score)” value [9] was -0.241. For the same binder, the “glycan array binding signal (z-score)” value [10] was -0.282, the “glycan array binding signal (z-score)” value [11] was -0.286 and the “glycan array binding signal (z-score)” value [12] was -0.28. For the same binder, the “glycan array binding signal (z-score)” value [13] was -0.24, the “glycan array binding signal (z-score)” value [14] was -0.159 and the “glycan array binding signal (z-score)” value [15] was -0.285. The “glycan array binding signal (z-score)” value [16] was -0.247, the “glycan array binding signal (z-score)” value [17] was -0.215 and the “glycan array binding signal (z-score)” value [18] was -0.224. For the same binder, the “glycan array binding signal (z-score)” value [19] was -0.258, the “glycan array binding signal (z-score)” value [20] was -0.191 and the “glycan array binding signal (z-score)” value [21] was -0.236. The “glycan array binding signal (z-score)” value [22] was -0.245, the “glycan array binding signal (z-score)” value [23] was -0.179 and the “glycan array binding signal (z-score)” value [24] was -0.219. For the same binder, the “glycan array binding signal (z-score)” value [25] was -0.276, the “glycan array binding signal (z-score)” value [26] was -0.393 and the “glycan array binding signal (z-score)” value [27] was -0.295. The “glycan array binding signal (z-score)” value [28] was -0.236, the “glycan array binding signal (z-score)” value [29] was -0.232 and the “glycan array binding signal (z-score)” value [30] was -0.282. For the same binder, the “glycan array binding signal (z-score)” value [31] was -0.272, the “glycan array binding signal (z-score)” value [32] was -0.267 and the “glycan array binding signal (z-score)” value [33] was -0.27. The “glycan array binding signal (z-score)” value [34] was -0.266, the “glycan array binding signal (z-score)” value [35] was -0.234 and the “glycan array binding signal (z-score)” value [36] was -0.264. The “glycan array binding signal (z-score)” value [37] was -0.283 and the “glycan array binding signal (z-score)” value [38] was -0.28.
